Results taken from publication PMC11952801.
No constants are given. Whether binding was seen depends on the method and setting. In cells and extracts the contact can be indirect. Some binding calls cover weakened binding; strength is not graded here. For part of these data: Where a sequence is shown, tags or fusion partners need not be part of it. Values belong to the molecule of their own block, whether it stands above or below them.

Chains of the proteins cited; added tags and fusions are not shown.
UniProt Q9LTB8: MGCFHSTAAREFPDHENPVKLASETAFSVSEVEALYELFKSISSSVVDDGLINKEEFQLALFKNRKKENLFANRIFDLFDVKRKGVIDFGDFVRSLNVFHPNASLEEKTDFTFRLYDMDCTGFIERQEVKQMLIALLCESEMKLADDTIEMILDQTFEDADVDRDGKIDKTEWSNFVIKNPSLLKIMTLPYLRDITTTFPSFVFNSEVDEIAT

What was measured:
[1] = biological target: T1, P2K1-nLUC (Arabidopsis thaliana) (UniProt Q9LSR8); experiment: split reporter; split-luciferase complementation imaging (LCI); nLUC and cLUC fusions driven by the CaMV 35S promoter, co-infiltrated into 4-week-old N. benthamiana leaves; 3 days at 28 °C; 5 mM D-luciferin sprayed; luminescence by CCD camera; also with added ATP
T1 sequence: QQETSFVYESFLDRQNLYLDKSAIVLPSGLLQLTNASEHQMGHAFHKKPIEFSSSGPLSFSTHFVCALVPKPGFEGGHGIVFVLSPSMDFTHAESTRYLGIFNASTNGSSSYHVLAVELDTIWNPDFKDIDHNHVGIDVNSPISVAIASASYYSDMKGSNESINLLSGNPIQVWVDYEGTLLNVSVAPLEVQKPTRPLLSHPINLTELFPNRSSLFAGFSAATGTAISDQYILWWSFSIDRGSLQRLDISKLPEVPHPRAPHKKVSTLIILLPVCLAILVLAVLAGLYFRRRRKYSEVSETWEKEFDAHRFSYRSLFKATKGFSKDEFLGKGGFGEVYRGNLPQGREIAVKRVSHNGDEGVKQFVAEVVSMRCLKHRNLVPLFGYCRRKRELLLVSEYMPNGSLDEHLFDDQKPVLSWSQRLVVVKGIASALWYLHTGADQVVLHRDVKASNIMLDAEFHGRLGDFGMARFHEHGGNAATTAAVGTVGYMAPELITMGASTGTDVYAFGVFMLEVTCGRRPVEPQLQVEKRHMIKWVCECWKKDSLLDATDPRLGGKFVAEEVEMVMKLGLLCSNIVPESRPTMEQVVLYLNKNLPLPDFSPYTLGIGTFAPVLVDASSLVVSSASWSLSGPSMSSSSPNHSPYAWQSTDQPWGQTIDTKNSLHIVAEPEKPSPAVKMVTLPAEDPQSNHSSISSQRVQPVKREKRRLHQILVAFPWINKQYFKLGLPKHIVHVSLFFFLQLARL

[2] = biological target: T2, P2K1-nYFP (Arabidopsis thaliana) (UniProt Q9LSR8); experiment: split reporter; BiFC; nYFP and cYFP fusions in Arabidopsis protoplasts (PEG-mediated transformation), 21 °C for 24 h in the dark; YFP fluorescence by microscopy, FM4-64 as plasma membrane marker
T2 sequence: T1 sequence

[3] = biological target: T3, P2K1 (construct of the validation tests listed in Table 1 not told) (Arabidopsis thaliana) (UniProt Q9LSR8); experiment: split reporter; LCI assay as listed in Table 1 for candidates of the 2k KiC screen; no reference and no further description given
T3 sequence: T1 sequence

[4] = biological target: T4, HA-tagged P2K1 (Arabidopsis thaliana) (UniProt Q9LSR8); experiment: co-IP; HA-tagged P2K1 coexpressed with Myc-tagged ILK4 or ILK5 in N. benthamiana leaves, with and without exogenous ATP; total protein extract (50 mM Tris-HCl pH 7.5, 150 mM NaCl, 0.5% Triton X-100); anti-HA agarose beads overnight at 4 °C; blots with anti-HA and anti-Myc
T4 sequence: T1 sequence

[5] = biological target: T3, P2K1 (construct of the validation tests listed in Table 1 not told) (Arabidopsis thaliana); experiment: pull-down; GST pull-down assay as listed in Table 1 for BHLH134; no reference and no further description given
[6] = biological target: T3, P2K1 (construct of the validation tests listed in Table 1 not told) (Arabidopsis thaliana); experiment: split reporter; BiFC as listed in Table 1 for BHLH134; no reference and no further description given

Molecule: CBL9-cYFP (from UniProt Q9LTB8 1-213)
- binding [2]: binds

B2: ATL6 (split-luciferase fusion) (protein, UniProt Q8RXX9 30-398)
chain: QSQPGPTNQPYNYGRLSPAMAVIVVILIAALFFMGFFSIYFRHCSGVPDAGVSPAGGARSRATVNAAARGLDVSVVETFPTFLYSDVKTQKLGKGELECAICLNEFEDDETLRLLPKCDHVFHPHCIDAWLEAHVTCPVCRANLAEQVAEGESVEPGGTEPDLELQQVVVNPEPVVTAPVPEQLVTSEVDSRRLPGVPVDLKRVKFSRSHTTGHSVVQPGECTERFTLRLPEDVRKRIMKDWKLNRTNSLLVLPRGGSSRRGKPIDRSRARSDRWLFRKTPSFLWRSRDDGSIRLGATGSVRASAVPNSTGSDSVRAGDRWAFLRNASFLWRNSSVHVPRGGVNKDGEGTSVKSTGASGSTSGSVRLPV
- binding [1]: no binding

B4: Embryonic factor1 (At2g38280) (protein, UniProt O80452 1-839)
chain: MEPNIYQLALAALFGASFVAVSGFFMHFKALNLVLERGKERKENPDGDEPQNPTLVRRRSQVRRKVNDQYGRSPASLPDATPFTDGGGGGGGDTGRSNGHVYVDEIPPGLPRLHTPSEGRASVHGASSIRKTGSFVRPISPKSPVASASAFESVEESDDDDNLTNSEGLDASYLQANGDNEMPADANEEQISMAASSMIRSHSVSGDLHGVQPDPIAADILRKEPEQETFVRLNVPLEVPTSDEVEAYKCLQECLELRKRYVFQETVAPWEKEVISDPSTPKPNTEPFAHYPQGKSDHCFEMQDGVVHVFANKDAKEDLFPVADATAFFTDLHHVLKVIAAGNIRTLCHRRLVLLEQKFNLHLMLNADKEFLAQKSAPHRDFYNVRKVDTHVHHSACMNQKHLLRFIKSKLRKEPDEVVIFRDGTYLTLREVFESLDLTGYDLNVDLLDVHADKSTFHRFDKFNLKYNPCGQSRLREIFLKQDNLIQGRFLGEITKQVFSDLEASKYQMAEYRISIYGRKMSEWDQLASWIVNNDLYSENVVWLIQLPRLYNIYKDMGIVTSFQNILDNIFIPLFEATVDPDSHPQLHVFLKQVVGFDLVDDESKPERRPTKHMPTPAQWTNAFNPAFSYYVYYCYANLYVLNKLRESKGMTTITLRPHSGEAGDIDHLAATFLTCHSIAHGINLRKSPVLQYLYYLAQIGLAMSPLSNNSLFLDYHRNPFPVFFLRGLNVSLSTDDPLQIHLTKEPLVEEYSIAASVWKLSACDLCEIARNSVYQSGFSHALKSHWIGKDYYKRGPDGNDIHKTNVPHIRVEFRDTIWKEEMQQVYLGKAVISDEVVP
- binding [3]: no binding

B7: ILK5-Myc (enzyme, UniProt Q93Z30 1-459)
chain: MEEDYQQPRFTIGRQSSMAPEKIPEPSVHSEEEVFEDGEEIDGGVRLMYLANEGDIEGIKELIDSGIDANYRDIDDRTALHVAACQGLKDVVELLLDRKAEVDPKDRWGSTPFADAIFYKNIDVIKILEIHGAKHPMAPMHVKTAREVPEYEINPSELDFTQSKEITKGTYCMAMWRGIQVAVKKLDDEVLSDDDQVRKFHDELALLQRLRHPNIVQFLGAVTQSNPMMIVTEYLPRGDLRELLKRKGQLKPATAVRYALDIARGMSYLHEIKGDPIIHRDLEPSNILRDDSGHLKVADFGVSKLVTVKEDKPFTCQDISCRYIAPEVFTSEEYDTKADVFSFALIVQEMIEGRMPFAEKEDSEASEAYAGKHRPLFKAPSKNYPHGLKTLIEECWHEKPAKRPTFREIIKRLESILHHMGHKRQWRMRPLTCFQNFEHKKKHNWDLSSHDGSSSGSHL
- binding [4]: binds

Continued, values first:

- binding [1]: binds
Molecule: CBL9 (split-luciferase fusion) (from UniProt Q9LTB8 1-213)

- binding [3]: no binding
B1: ATHAK5 (At4g13420) (protein, UniProt Q9M7K4 1-785)
chain: MDGEEHQIDGDEVNNHENKLNEKKKSWGKLYRPDSFIIEAGQTPTNTGRRSLMSWRTTMSLAFQSLGVVYGDIGTSPLYVYASTFTDGINDKDDVVGVLSLIIYTITLVALLKYVFIVLQANDNGEGGTFALYSLICRYAKMGLIPNQEPEDVELSNYTLELPTTQLRRAHMIKEKLENSKFAKIILFLVTIMGTSMVIGDGILTPSISVLSAVSGIKSLGQNTVVGVSVAILIVLFAFQRFGTDKVGFSFAPIILVWFTFLIGIGLFNLFKHDITVLKALNPLYIIYYFRRTGRQGWISLGGVFLCITGTEAMFADLGHFSVRAVQISFSCVAYPALVTIYCGQAAYLTKHTYNVSNTFYDSIPDPLYWPTFVVAVAASIIASQAMISGAFSVISQSLRMGCFPRVKVVHTSAKYEGQVYIPEINYLLMLACIAVTLAFRTTEKIGHAYGIAVVTVMVITTLMVTLIMLVIWKTNIVWIAIFLVVFGSIEMLYLSSVMYKFTSGGYLPLTITVVLMAMMAIWQYVHVLKYRYELREKISRENAIQMATSPDVNRVPGIGLFYTELVNGITPLFSHYISNLSSVHSVFVLISIKTLPVNRVTSSERFFFRYVGPKDSGMFRCVVRYGYKEDIEEPDEFERHFVYYLKEFIHHEHFMSGGGGEVDETDKEEEPNAETTVVPSSNYVPSSGRIGSAHSSSSDKIRSGRVVQVQSVEDQTELVEKAREKGMVYLMGETEITAEKESSLFKKFIVNHAYNFLKKNCREGDKALAIPRSKLLKVGMTYEL

- binding [1]: binds
B3: GPA1 (split-luciferase fusion) (protein, UniProt P18064 1-383)
chain: MGLLCSRSRHHTEDTDENTQAAEIERRIEQEAKAEKHIRKLLLLGAGESGKSTIFKQIKLLFQTGFDEGELKSYVPVIHANVYQTIKLLHDGTKEFAQNETDSAKYMLSSESIAIGEKLSEIGGRLDYPRLTKDIAEGIETLWKDPAIQETCARGNELQVPDCTKYLMENLKRLSDINYIPTKEDVLYARVRTTGVVEIQFSPVGENKKSGEVYRLFDVGGQRNERRKWIHLFEGVTAVIFCAAISEYDQTLFEDEQKNRMMETKELFDWVLKQPCFEKTSFMLFLNKFDIFEKKVLDVPLNVCEWFRDYQPVSSGKQEIEHAYEFVKKKFEELYYQNTAPDRVDRVFKIYRTTALDQKLVKKTFKLVDETLRRRNLLEAGLL

- binding [2]: no binding
B5: MKK3-cYFP (enzyme, UniProt O80396 1-520)
chain: MAALEELKKKLSPLFDAEKGFSSSSSLDPNDSYLLSDGGTVNLLSRSYGVYNFNELGLQKCTSSHVDESESSETTYQCASHEMRVFGAIGSGASSVVQRAIHIPNHRILALKKINIFEREKRQQLLTEIRTLCEAPCHEGLVDFHGAFYSPDSGQISIALEYMNGGSLADILKVTKKIPEPVLSSLFHKLLQGLSYLHGVRHLVHRDIKPANLLINLKGEPKITDFGISAGLENSMAMCATFVGTVTYMSPERIRNDSYSYPADIWSLGLALFECGTGEFPYIANEGPVNLMLQILDDPSPTPPKQEFSPEFCSFIDACLQKDPDARPTADQLLSHPFITKHEKERVDLATFVQSIFDPTQRLKDLADMLTIHYYSLFDGFDDLWHHAKSLYTETSVFSFSGKHNTGSTEIFSALSDIRNTLTGDLPSEKLVHVVEKLHCKPCGSGGVIIRAVGSFIVGNQFLICGDGVQAEGLPSFKDLGFDVASRRVGRFQEQFVVESGDLIGKYFLAKQELYITNLD

- binding [1]: binds
B6: ILK5-cLUC (enzyme, UniProt Q93Z30 1-459)
chain: B7 chain

- binding [5]: binds
- binding [6]: binds
- binding [3]: binds
B8: BHLH134 (At5g15160) (protein, UniProt Q9LXG5 1-94)
chain: MSSSRRSRQASSSSRISDDQITDLISKLRQSIPEIRQNRRSNTVSASKVLQETCNYIRNLNKEADDLSDRLTQLLESIDPNSPQAAVIRSLING
